Values after ≈ are worked out from the molar mass of the structure shown.
Tested on: M. tuberculosis H37Rv
Test: MIC by the Alamar Blue method
Assay type: cell-based
Conditions: Mycobacterium tuberculosis

SMILES: CC1COC2(CCN(c3nc(=O)c4cc(C(F)(F)F)cc([N+](=O)[O-])c4s3)CC2)O1 (stereo not shown) [Compound 2, 2-(2-methyl-1,4-dioxa-8-azaspiro[4.5]dec-8-yl)-8-nitro-6-(trifluoromethyl)-1,3-benzothiazin-4-one]
- MIC: 0.03 µg/mL (≈ 0.0695 µM)
